# According to the supplement of paper PMC8728848:
# The list shows a part of the results.
# B1: GS7807H-bfa-490-18-490 (Bacteroides fragilis) (protein)
# chain: GNLEEMNIDPDNATQTHPKLLLTQICMNAFKRGTDGMYATKKVIQADGESADQYYKWTRGSFGYYDNLRNVQKMGEEAERVNAPVYTALTKFFRAYYFYELTLRFGDIPYSQALKGEKEEIYTPEYDAQEDVFAGILQELREADEILANDASVIDGDIIYNGNSTQWRKLINSFRLKVLMTLSNHTTVGNINIASEFKNIATNSPLMNSLADNGQLVYLDQQGNRYPQFNAQWSGYYMDDTFIQRMRERRDPRLFIFSAQTNKGKTEGKPIDDFSSYEGGDPAAPYSDAIIKVSEGTISPINDRFRTDPIVEPTMLMGYAELQQILAEAVVRGWISGNAQTYYEKGIRASFSFYETHAKDYAGYLNENAVAQYLKEPLVDFTQASGTEEQIERIIMQKYLVTFYQGNWDSFYEQLRTGYPDFRRPAGTEIPKRWMYPQGEYDNNGTNVETAITRQFGAGNDKINQATWWQKKS
# What was measured:
# Experiment in all cases: glycan array binding signal (z-score within array); higher = stronger binding
# Conditions in all cases: glycan notation: IUPAC condensed, linker removed
# [1] = target: Fuc(a1-2)Gal(b1-4)GlcNAc(b1-3)Gal(b1-4)GlcNAc(b1-3)Gal(b1-4)GlcNAc
# Summary of the method: (§1)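 Arrays were curated from the Consortium for Functional Glycomics database, 3228 in total, and kept only where the protein sequence was available. Binding is expressed as a within-array Z-score. This score was averaged across arrays of the same protein sequence at different concentrations or buffers and across linkers, and negative values can be read as non-binding.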
# [2] = target: Fuc(a1-2)Gal(b1-4)GlcNAc(b1-3)GalNAc
# Summary of the method: as §1
# [3] = target: Fuc(a1-2)Gal(b1-4)GlcNAc(b1-3)[Fuc(a1-2)Gal(b1-4)GlcNAc(b1-6)]GalNAc
# Summary of the method: as §1
# [4] = target: Fuc(a1-2)Gal(b1-4)GlcNAc(b1-3)[Fuc(a1-3)[Gal(b1-4)]GlcNAc(b1-6)]Gal(b1-4)Glc
# Summary of the method: as §1
# [5] = target: Fuc(a1-2)Gal(b1-4)GlcNAc(b1-6)GalNAc
# Summary of the method: as §1
# [6] = target: Fuc(a1-2)Gal(b1-4)GlcNAc6S
# Summary of the method: as §1
# [7] = target: Fuc(a1-2)Gal(b1-4)[Fuc(a1-3)]GlcNAc
# Summary of the method: as §1
# [8] = target: Fuc(a1-2)Gal(b1-4)[Fuc(a1-3)]GlcNAc(b1-2)Man(a1-3)[Fuc(a1-2)Gal(b1-4)[Fuc(a1-3)]GlcNAc(b1-2)Man(a1-6)]Man(b1-4)GlcNAc(b1-4)[Fuc(a1-6)]GlcNAc
# Summary of the method: as §1
# [9] = target: Fuc(a1-2)Gal(b1-4)[Fuc(a1-3)]GlcNAc(b1-2)[Fuc(a1-2)Gal(b1-4)[Fuc(a1-3)]GlcNAc(b1-4)]Man(a1-3)[Fuc(a1-2)Gal(b1-4)[Fuc(a1-3)]GlcNAc(b1-2)Man(a1-6)]Man(b1-4)GlcNAc(b1-4)GlcNAc
# Summary of the method: as §1
# [10] = target: Fuc(a1-2)Gal(b1-4)[Fuc(a1-3)]GlcNAc(b1-3)Gal(b1-4)[Fuc(a1-3)]GlcNAc
# Summary of the method: as §1
# [11] = target: Fuc(a1-2)Gal(b1-4)[Fuc(a1-3)]GlcNAc(b1-3)Gal(b1-4)[Fuc(a1-3)]GlcNAc(b1-3)Gal(b1-4)[Fuc(a1-3)]GlcNAc
# Summary of the method: as §1
# [12] = target: Fuc(a1-2)Gal(b1-4)[Fuc(a1-3)]GlcNAc(b1-3)GalNAc
# Summary of the method: as §1
# [13] = target: Fuc(a1-2)Gal(b1-4)[Fuc(a1-3)]GlcNAc(b1-3)[Neu5Ac(a2-6)Gal(b1-4)GlcNAc(b1-6)]Gal(b1-4)Glc
# Summary of the method: as §1
# [14] = target: Fuc(a1-2)Gal3S(b1-4)GlcNAc
# Summary of the method: as §1
# [15] = target: Fuc(a1-2)Gal6S(b1-3)GlcNAc
# Summary of the method: as §1
# [16] = target: Fuc(a1-2)Gal6S(b1-3)GlcNAc6S
# Summary of the method: as §1
# [17] = target: Fuc(a1-2)Gal6S(b1-4)Glc
# Summary of the method: as §1
# [18] = target: Fuc(a1-2)Gal6S(b1-4)Glc6S
# Summary of the method: as §1
# [19] = target: Fuc(a1-2)[Gal(a1-3)]Gal
# Summary of the method: as §1
# [20] = target: Fuc(a1-2)[Gal(a1-3)]Gal(b1-3)GalNAc
# Summary of the method: as §1
# [21] = target: Fuc(a1-2)[Gal(a1-3)]Gal(b1-3)GalNAc(b1-3)Gal(a1-4)Gal(b1-4)Glc
# Summary of the method: as §1
# [22] = target: Fuc(a1-2)[Gal(a1-3)]Gal(b1-3)GlcNAc
# Summary of the method: as §1
# [23] = target: Fuc(a1-2)[Gal(a1-3)]Gal(b1-3)GlcNAc(b1-2)Man(a1-3)[Fuc(a1-2)[Gal(a1-3)]Gal(b1-3)GlcNAc(b1-2)Man(a1-6)]Man(b1-4)GlcNAc(b1-4)GlcNAc
# Summary of the method: as §1
# [24] = target: Fuc(a1-2)[Gal(a1-3)]Gal(b1-3)GlcNAc(b1-2)Man(a1-3)[Fuc(a1-2)[Gal(a1-3)]Gal(b1-3)GlcNAc(b1-2)Man(a1-6)]Man(b1-4)GlcNAc(b1-4)[Fuc(a1-6)]GlcNAc
# Summary of the method: as §1
# [25] = target: Fuc(a1-2)[Gal(a1-3)]Gal(b1-3)GlcNAc(b1-3)GalNAc
# Summary of the method: as §1
# [26] = target: Fuc(a1-2)[Gal(a1-3)]Gal(b1-3)GlcNAc(b1-6)GalNAc
# Summary of the method: as §1
# [27] = target: Fuc(a1-2)[Gal(a1-3)]Gal(b1-4)Glc
# Summary of the method: as §1
# [28] = target: Fuc(a1-2)[Gal(a1-3)]Gal(b1-4)GlcNAc
# Summary of the method: as §1
# [29] = target: Fuc(a1-2)[Gal(a1-3)]Gal(b1-4)GlcNAc(b1-2)Man
# Summary of the method: as §1
# [30] = target: Fuc(a1-2)[Gal(a1-3)]Gal(b1-4)GlcNAc(b1-2)Man(a1-3)[Fuc(a1-2)[Gal(a1-3)]Gal(b1-4)GlcNAc(b1-2)Man(a1-6)]Man(b1-4)GlcNAc(b1-4)GlcNAc
# Summary of the method: as §1
# [31] = target: Fuc(a1-2)[Gal(a1-3)]Gal(b1-4)GlcNAc(b1-2)Man(a1-3)[Fuc(a1-2)[Gal(a1-3)]Gal(b1-4)GlcNAc(b1-2)Man(a1-6)]Man(b1-4)GlcNAc(b1-4)[Fuc(a1-6)]GlcNAc
# Summary of the method: as §1
# [32] = target: Fuc(a1-2)[Gal(a1-3)]Gal(b1-4)GlcNAc(b1-3)GalNAc
# Summary of the method: as §1
# [33] = target: Fuc(a1-2)[Gal(a1-3)]Gal(b1-4)GlcNAc(b1-3)[Fuc(a1-2)[Gal(a1-3)]Gal(b1-4)GlcNAc(b1-6)]GalNAc
# Summary of the method: as §1
# [34] = target: Fuc(a1-2)[Gal(a1-3)]Gal(b1-4)GlcNAc(b1-6)GalNAc
# Summary of the method: as §1
# [35] = target: Fuc(a1-2)[Gal(a1-3)]Gal(b1-4)[Fuc(a1-3)]Glc
# Summary of the method: as §1
# [36] = target: Fuc(a1-2)[Gal(a1-3)]Gal(b1-4)[Fuc(a1-3)]GlcNAc
# Summary of the method: as §1
# [37] = target: Fuc(a1-2)[Gal(a1-3)]Gal(b1-4)[Fuc(a1-3)]GlcNAc(b1-3)GalNAc
# Summary of the method: as §1
# [38] = target: Fuc(a1-2)[Gal(a1-4)]Gal(b1-4)GlcNAc
# Summary of the method: as §1
# [39] = target: Fuc(a1-2)[GalNAc(a1-3)]Gal
# Summary of the method: as §1
# [40] = target: Fuc(a1-2)[GalNAc(a1-3)]Gal(b1-3)GalNAc(a1-3)[Fuc(a1-2)]Gal(b1-4)GlcNAc
# Summary of the method: as §1
# [41] = target: Fuc(a1-2)[GalNAc(a1-3)]Gal(b1-3)GalNAc(b1-3)Gal(a1-4)Gal(b1-4)Glc
# Summary of the method: as §1
# [42] = target: Fuc(a1-2)[GalNAc(a1-3)]Gal(b1-3)GlcNAc
# Summary of the method: as §1
# [43] = target: Fuc(a1-2)[GalNAc(a1-3)]Gal(b1-3)GlcNAc(b1-2)Man(a1-3)[Fuc(a1-2)[GalNAc(a1-3)]Gal(b1-3)GlcNAc(b1-2)Man(a1-6)]Man(b1-4)GlcNAc(b1-4)GlcNAc
# Summary of the method: as §1
# [44] = target: Fuc(a1-2)[GalNAc(a1-3)]Gal(b1-3)GlcNAc(b1-2)Man(a1-3)[Fuc(a1-2)[GalNAc(a1-3)]Gal(b1-3)GlcNAc(b1-2)Man(a1-6)]Man(b1-4)GlcNAc(b1-4)[Fuc(a1-6)]GlcNAc
# Summary of the method: as §1
# [45] = target: Fuc(a1-2)[GalNAc(a1-3)]Gal(b1-3)GlcNAc(b1-3)GalNAc
# Summary of the method: as §1
binder,measurement,setting,value
B1,glycan array binding signal (z-score),[1],-0.949
same,glycan array binding signal (z-score),[2],-0.664
same,glycan array binding signal (z-score),[3],-0.134
same,glycan array binding signal (z-score),[4],-0.72
same,glycan array binding signal (z-score),[5],0.009
same,glycan array binding signal (z-score),[6],-0.3
same,glycan array binding signal (z-score),[7],-0.35
same,glycan array binding signal (z-score),[8],0.148
same,glycan array binding signal (z-score),[9],-0.455
same,glycan array binding signal (z-score),[10],-0.436
same,glycan array binding signal (z-score),[11],1.98
same,glycan array binding signal (z-score),[12],0.672
same,glycan array binding signal (z-score),[13],-0.336
same,glycan array binding signal (z-score),[14],-0.779
same,glycan array binding signal (z-score),[15],-0.343
same,glycan array binding signal (z-score),[16],0.043
same,glycan array binding signal (z-score),[17],-0.531
same,glycan array binding signal (z-score),[18],0.125
same,glycan array binding signal (z-score),[19],-0.534
same,glycan array binding signal (z-score),[20],-0.08
same,glycan array binding signal (z-score),[21],-0.145
same,glycan array binding signal (z-score),[22],0.229
same,glycan array binding signal (z-score),[23],0.541
same,glycan array binding signal (z-score),[24],0.595
same,glycan array binding signal (z-score),[25],-0.384
same,glycan array binding signal (z-score),[26],-0.187
same,glycan array binding signal (z-score),[27],-0.404
same,glycan array binding signal (z-score),[28],-0.518
same,glycan array binding signal (z-score),[29],-0.318
same,glycan array binding signal (z-score),[30],1.24
same,glycan array binding signal (z-score),[31],-0.302
same,glycan array binding signal (z-score),[32],-0.069
same,glycan array binding signal (z-score),[33],-0.617
same,glycan array binding signal (z-score),[34],-0.524
same,glycan array binding signal (z-score),[35],-0.426
same,glycan array binding signal (z-score),[36],-0.363
same,glycan array binding signal (z-score),[37],-0.27
same,glycan array binding signal (z-score),[38],-0.516
same,glycan array binding signal (z-score),[39],-0.611
same,glycan array binding signal (z-score),[40],-0.514
same,glycan array binding signal (z-score),[41],0.107
same,glycan array binding signal (z-score),[42],0.788
same,glycan array binding signal (z-score),[43],-0.562
same,glycan array binding signal (z-score),[44],-0.169
same,glycan array binding signal (z-score),[45],0.075
